The supplement of paper PMC4604168 (melanoma cell lines)
This is one part of the list. Single values are uncertain, as repeats are few or missing.

Assays:
Assay in all cases: cell count relative to DMSO control; melanoma cells; higher = more viable cells
Conditions in all cases: library dose: low library concentration; 72 h
MZ2-MEL = tested on: MZ2-MEL
MeWo = tested on: MeWo
RPMI7951 = tested on: RPMI7951
RVH-421 = tested on: RVH-421
SkMel28 = tested on: SkMel28
SkMel2 = tested on: SkMel2
SkMel30 = tested on: SkMel30
SkMel5 = tested on: SkMel5
UACC257 = tested on: UACC257
UACC62 = tested on: UACC62
WM115 = tested on: WM115
WM1716 = tested on: WM1716
WM1745 = tested on: WM1745
WM3526 = tested on: WM3526
WM3619 = tested on: WM3619
WM451Lu = tested on: WM451Lu
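Also: cell number obtained by counting DAPI-stained nuclei in high-throughput microscope images with image analysis software, screen run in 1,536-well plates.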

Structure (SMILES) | cell count (MZ2-MEL) [%] | cell count (MeWo) [%] | cell count (RPMI7951) [%] | cell count (RVH-421) [%] | cell count (SkMel28) [%] | cell count (SkMel2) [%] | cell count (SkMel30) [%] | cell count (SkMel5) [%] | cell count (UACC257) [%] | cell count (UACC62) [%] | cell count (WM115) [%] | cell count (WM1716) [%] | cell count (WM1745) [%] | cell count (WM3526) [%] | cell count (WM3619) [%] | cell count (WM451Lu) [%]
C=C(c1ccc(C(=O)O)cc1)c1cc2c(cc1C)C(C)(C)CCC2(C)C [Bexarotene] + CCN(CC)CCCCNc1ncc2cc(-c3cc(OC)cc(OC)c3)c(NC(=O)NC(C)(C)C)nc2n1 [PD173074] (first compound 2 µM, partner dose 0.1 µM) | 90.7 | 87.5 | 81.3 | 89.2 | 81.2 | 100 | 95.6 | 92.3 | 120 | 96.6 | 108 | 91 | 98.4 | 85.5 | 93.1 | 93.5
NC1(c2ccc(-c3nc4ccn5c(=O)[nH]nc5c4cc3-c3ccccc3)cc2)CCC1 + NC(=O)Nc1cc(-c2cccc(F)c2)sc1C(=O)N[C@H]1CCCNC1 [AZD7762] (first compound 0.4 µM, partner dose 0.02 µM) | 96 | 103 | 96.2 | 121 | 65.8 | 92.5 | 90 | 93.9 | 108 | 82.9 | 67.6 | 92.2 | 85.7 | 81.5 | 87.7 | 71.5
CS(=O)(=O)c1ccc(C(=O)Nc2ccc(Cl)c(-c3ccccn3)c2)c(Cl)c1 [vismodegib] + CN(C)S(=O)(=O)c1ccc2c(c1)/C(=C/c1cc3c([nH]1)CCCC3)C(=O)N2 [SU6656] (first compound 1 µM, partner dose 0.4 µM) | 108 | 87.5 | 108 | 116 | 89.8 | 98.5 | 88.1 | 102 | 76.1 | 77.7 | 92.5 | 111 | 89.4 | 94.6 | 113 | 92.4
CN(c1ncccc1CNc1nc(Nc2ccc3c(c2)CC(=O)N3)ncc1C(F)(F)F)S(C)(=O)=O + CC1(C)NC(=O)N(c2ccc([N+](=O)[O-])c(C(F)(F)F)c2)C1=O [nilutamide] (first compound 0.08 µM, partner dose 1 µM) | 97.3 | 100 | 77.4 | 79.2 | 95.1 | 99.3 | 116 | 68.1 | 68 | 92.2 | 87.4 | 94.6 | 88.7 | 84.3 | 99.3 | 73.1
NC1(c2ccc(-c3nc4ccn5c(=O)[nH]nc5c4cc3-c3ccccc3)cc2)CCC1 + c1cc(-c2cnn3cc(-c4ccc(OCCN5CCCCC5)cc4)cnc23)ccn1 [Dorsomorphin] (first compound 0.4 µM, partner dose 0.4 µM) | 96.5 | 89 | 84 | 93.7 | 76.4 | 114 | 87 | 81.2 | 96.1 | 79.3 | 79.1 | 98.1 | 89.4 | 64.3 | 69 | 87.3
CN(c1ncccc1CNc1nc(Nc2ccc3c(c2)CC(=O)N3)ncc1C(F)(F)F)S(C)(=O)=O + CC(C)(C)c1cnc(CSc2cnc(NC(=O)C3CCNCC3)s2)o1 [SNS-032] (first compound 0.08 µM, partner dose 0.01 µM) | 93 | 91.5 | 80.5 | 121 | 65 | 86.9 | 108 | 67.7 | 45.3 | 65.6 | 102 | 76.6 | 78.3 | 70.4 | 95.8 | 66
CS(=O)(=O)c1ccc(C(=O)Nc2ccc(Cl)c(-c3ccccn3)c2)c(Cl)c1 [vismodegib] + CC(C)CCN1c2nc(Nc3cc(F)c(O)c(F)c3)ncc2N(C)C(=O)C1C [BID1870] (first compound 1 µM, partner dose 0.2 µM) | 110 | 96.4 | 98.4 | 96.9 | 101 | 102 | 88.5 | 104 | 74.9 | 105 | 87.4 | 105 | 107 | 105 | 92.6 | 97.3
C=C(c1ccc(C(=O)O)cc1)c1cc2c(cc1C)C(C)(C)CCC2(C)C [Bexarotene] + O=C(CCCCCCC(=O)Nc1ccccc1)NO [vorinostat] (first compound 2 µM, partner dose 0.08 µM) | 99.4 | 89.4 | 77.6 | 114 | 68.8 | 104 | 137 | 98.9 | 98.9 | 87.5 | 88.7 | 83.4 | 104 | 83.9 | 90.7 | 96.6
CS(=O)(=O)c1ccc(C(=O)Nc2ccc(Cl)c(-c3ccccn3)c2)c(Cl)c1 [vismodegib] + Oc1cc(-c2nc(-c3ccccc3)[nH]c2-c2ccncc2)ccc1Cl [L779450] (first compound 1 µM, partner dose 0.2 µM) | 79.8 | 94.5 | 92.5 | 114 | 96.4 | 99.7 | 95.3 | 90.9 | 83.6 | 75.2 | 88.9 | 92.8 | 83.7 | 78.5 | 102 | 94.5
C=C(c1ccc(C(=O)O)cc1)c1cc2c(cc1C)C(C)(C)CCC2(C)C [Bexarotene] + N#Cc1c(O)c2c(-c3ccc(-c4ccccc4O)cc3)csc2[nH]c1=O [A769662] (first compound 2 µM, partner dose 2 µM) | 90.5 | 104 | 83.1 | 88.8 | 83.4 | 104 | 123 | 100 | 113 | 87.5 | 109 | 81.7 | 96.3 | 82.6 | 92.2 | 90.2
CS(=O)(=O)c1ccc(C(=O)Nc2ccc(Cl)c(-c3ccccn3)c2)c(Cl)c1 [vismodegib] + Cc1ccc(NC(=O)c2cccc(N(C)C)c2)cc1NC(=O)c1ccc(O)cc1 [ZM336372] (first compound 1 µM, partner dose 2 µM) | 85.8 | 106 | 82.9 | 114 | 92.2 | 113 | 99.6 | 94.6 | 92.3 | 114 | 104 | 118 | 89.7 | 102 | 92 | 120
NC1(c2ccc(-c3nc4ccn5c(=O)[nH]nc5c4cc3-c3ccccc3)cc2)CCC1 + Cn1cc(/C=C2\C(=O)Nc3cccnc32)c2ccccc21 [GW441756] (first compound 0.4 µM, partner dose 0.4 µM) | 95.8 | 89.7 | 96.9 | 87.8 | 63.1 | 97.4 | 88.3 | 79.5 | 70.9 | 84.3 | 78.9 | 93.6 | 89.8 | 66.3 | 85.7 | 115
CS(=O)(=O)c1ccc(C(=O)Nc2ccc(Cl)c(-c3ccccn3)c2)c(Cl)c1 [vismodegib] + Cc1cc(N2CCOCC2)cc2[nH]c(-c3c(NC[C@@H](O)c4cccc(Cl)c4)cc[nH]c3=O)nc12 [BMS536924] (first compound 1 µM, partner dose 0.2 µM) | 106 | 91.7 | 99.8 | 99 | 97 | 98.7 | 72.3 | 96.1 | 92.2 | 85.9 | 98.8 | 99.2 | 74.8 | 95.6 | 104 | 93.4
CS(=O)(=O)c1ccc(C(=O)Nc2ccc(Cl)c(-c3ccccn3)c2)c(Cl)c1 [vismodegib] + CC1(C)NC(=O)N(c2ccc([N+](=O)[O-])c(C(F)(F)F)c2)C1=O [nilutamide] (first compound 1 µM, partner dose 1 µM) | 98.2 | 97.2 | 126 | 103 | 102 | 88.7 | 98.2 | 107 | 120 | 88.8 | 100 | 101 | 87.2 | 114 | 106 | 105
CN(c1ncccc1CNc1nc(Nc2ccc3c(c2)CC(=O)N3)ncc1C(F)(F)F)S(C)(=O)=O + COc1ccc2c(c1)CCC1C2CCC2(C)C(NCCCCCCN3C(=O)C=CC3=O)CCC12 [U73122] (first compound 0.08 µM, partner dose 0.4 µM) | 98.2 | 102 | 64.1 | 113 | 106 | 97 | 97.7 | 82.5 | 78.2 | 96 | 90.7 | 78.5 | 67.1 | 70.2 | 108 | 93.5
NC1(c2ccc(-c3nc4ccn5c(=O)[nH]nc5c4cc3-c3ccccc3)cc2)CCC1 + COc1ccc2c(c1)CCC1C2CCC2(C)C(NCCCCCCN3C(=O)C=CC3=O)CCC12 [U73122] (first compound 0.4 µM, partner dose 0.4 µM) | 103 | 80.7 | 75.3 | 107 | 80.4 | 83.7 | 76.8 | 92.4 | 72.2 | 83.2 | 75.5 | 85.7 | 86.5 | 51.6 | 94.7 | 94.7
NC1(c2ccc(-c3nc4ccn5c(=O)[nH]nc5c4cc3-c3ccccc3)cc2)CCC1 + O=C1NC(=O)/C(=C/c2ccc(-c3ccc(F)cc3O)o2)S1 [AS252424] (first compound 0.4 µM, partner dose 1 µM) | 96 | 85.7 | 84.8 | 76.4 | 69.9 | 82.9 | 75.3 | 110 | 67 | 70 | 66.1 | 89.6 | 79.5 | 61 | 100 | 91.2
NC1(c2ccc(-c3nc4ccn5c(=O)[nH]nc5c4cc3-c3ccccc3)cc2)CCC1 + Cc1ccc(NC(=O)c2cccc(N(C)C)c2)cc1NC(=O)c1ccc(O)cc1 [ZM336372] (first compound 0.4 µM, partner dose 2 µM) | 71.2 | 101 | 82.9 | 96.7 | 52.4 | 98.5 | 78 | 94.5 | 95.6 | 84.8 | 77 | 94 | 94.5 | 84.6 | 102 | 97
C=C(c1ccc(C(=O)O)cc1)c1cc2c(cc1C)C(C)(C)CCC2(C)C [Bexarotene] + CCCCCCCCCCCC1=C(O)C(=O)C=C(O)C1=O [Embelin] (first compound 2 µM, partner dose 1.2 µM) | 102 | 99.4 | 106 | 88.3 | 66.2 | 96.5 | 109 | 87.9 | 102 | 91.8 | 98.1 | 95.1 | 90.7 | 83.3 | 108 | 90.5
